Source: paper PMC10726135
This is one part of the list. At the low end of the ranking the order means little. Measured with an extract: partners may take part in the binding.

Target: T1, HNF4alpha8 (COS-7 nuclear extract) (UniProt P41235-5)
T1 sequence: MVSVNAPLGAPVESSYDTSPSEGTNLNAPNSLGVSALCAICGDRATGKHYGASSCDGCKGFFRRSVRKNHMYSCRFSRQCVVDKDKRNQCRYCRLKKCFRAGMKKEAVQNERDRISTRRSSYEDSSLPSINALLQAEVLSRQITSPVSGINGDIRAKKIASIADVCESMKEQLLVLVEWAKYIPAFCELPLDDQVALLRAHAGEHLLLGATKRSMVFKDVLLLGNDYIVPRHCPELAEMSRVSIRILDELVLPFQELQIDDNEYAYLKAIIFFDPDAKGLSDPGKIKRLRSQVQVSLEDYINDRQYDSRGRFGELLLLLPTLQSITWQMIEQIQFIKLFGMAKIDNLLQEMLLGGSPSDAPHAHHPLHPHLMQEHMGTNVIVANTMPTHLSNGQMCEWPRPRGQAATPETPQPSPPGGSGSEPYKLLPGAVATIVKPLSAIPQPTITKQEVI
Experiment: protein-binding microarray
Conditions: COS-7 nuclear extract on double-stranded Agilent 4x180k PBM; binding buffer, salt, pH and temperature not given; high values mean tight binding; double strand, one strand shown; sequences stand for … in …GCCTAGGGAGATTAGAGTATCGGTCGA

Row | Sequence | binding signal (log2 normalized intensity)
1 | GTGGAATCCTGCTAGCAGCTCTCTCCCTTA | -1.33
2 | CCCCCAGGAGCGAGTCAAGGGTCAATCCTC | 4.12
3 | CAACCCTGGCATAGCATGCCACGATGATTA | -1
4 | ACTTTCTGTGTCTTGGCAGTGATCAGTGTT | 2.23
5 | CAGTCCACATTTCTGAGCTGTGGAAACTCC | -0.41
6 | AAGGTTGGTGTGAACCAGGGTTAAGGTTTT | 1.54
7 | GGTTAGAGGATGACCTTCCCTGCAGAAAAG | 0.76
8 | AAGCCGTGGTGCTGTCCAAGGTGCTAGCTC | -1.34
9 | AAGTTGTAAAGATACTGCTTTTAAGAAAAA | -1.26
10 | TGCACCCCAGGTACGGAGGACAGCCACCCG | -1.15
11 | ACAGAGCAAGTAGAGCTGCTTACATTTTGC | -1.27
12 | AAACAGATAACTGGGGGCAAAGGTTCACTT | 5.69
13 | CATTGTAGCCTCAAATTCCTGGGCTCAAAC | -1.42
14 | CTTACAGACTCCTGCATATCCTGACTGCTG | -1.34
15 | CACTGCTCTAGGCATTGGAGATATGATAGC | -0.93
16 | GTACCTCCCGAAAGTGACCCTCTGCCCCCT | 6.93
17 | CCAGTTAGACATAGGTTATAAACTTGTTTG | 1.98
18 | TCCAAAGGCCATCTGCTGGAGAATCCTCTC | -1.28
19 | ATGACTACTTTAAAAGAAGATGCCTTTCAA | -1.24
20 | AGGAGATAATGGGTGTAAGATACCTATGCC | -0.143
21 | CACTACAAGCTTTGAAGGCAAGATAAAATA | -1.32
22 | AAGCTTAGGAATTCCAAGAAGGCAGACTCA | -1.26
23 | GAGTTGGGGACAAAGTTCAAGGTCCAGCCT | 6.37
24 | GCAACCCCGTTTACTTTTGTACACACAGCA | -0.416

Row | Sequence | binding signal (log2 normalized intensity)
25 | ACCTTTGGGACATTCCCCAGGCTGCCCTGA | 1.75
26 | CCCAGTACAAAGTTCACTTTCTTGTTTACT | 5.19
27 | TCTGACCCTTGACCAAGCAGCTGTTTGACC | 3.77
28 | GGAGTTAACTAACAAAAGCAGAGGAGTGGC | -1.35
29 | TCCCTGACAGACCCCTCCTACGTACCCTAG | 2.72
30 | TTTAGAGCACAGTAATGTGATTTAATTCTG | -1.21
31 | CTCCAGGACCTTGCCCTTTAGTTATCTCTT | 3.16
32 | GGTTACAGGGTTCAACACGTGGTATTTTTC | 2.31
33 | CATCTCAGCTGTTATCTCTTTTGTGATAGA | 1.18
34 | GGGCGGGGGTGACCAGATTAATTACCCACA | -1.27
35 | GGCTCCGCTGCTGCAGAGCAAAGCTGATAA | -1.31
36 | TCCAGCCTGGGTGACAGAGTGAGACTCTAT | -1.28
37 | TACTGACCTTTCTCCCTTTTCACAGGAGAG | 1.94
38 | GGTAGTCGCCCTCCGTCGTGGCCTGGCGTG | -1.16
39 | CTCATTACTAATCCTCTTCTGTCCTCCTGT | 2.05
40 | AAATTCTGCGGCGGAAGGACACAGATTCAG | -1.41
41 | CCCCTTCCCACCTGCTGTCCAACCTCCTCC | 3.83
42 | ATTCATTCAGCAAATATTGAATGTGTTACA | 1.43
43 | GCCAGACTGGTTTTTCTTGGGTGTATGGGT | 1.98
44 | AGACATTCCAAACATGTTTCGAACGGTTGC | 0.375
45 | TTGCTATGTCCCTGATGACATAATTTACGG | -0.0713
46 | TTCCCGGCAGCCCGCGCGTGGCCCAGCATG | -1.32
47 | CAGATCCCAAAGGCATGAATAGAATGCAAC | -1.24
48 | CCAGATAAGAGCTATCAATGACCCATGTTT | 2.05

Row | Sequence | binding signal (log2 normalized intensity)
49 | AAATACTTGTTATATTGGATAGTGCCTTTT | 1.43
50 | CAGGAGCCCTAGGAATCCTGACCAGGGGCC | -1.36
51 | CAATTTCTTAGTAAACACTGCCACCGTGTG | -1.31
52 | TCTACCATAGACCCTGTTGGTTTCTGGGAT | 0.92
53 | TTTGCAAGGTTTGTTCTTATCATGCTGTCT | 1.68
54 | CACCCTTCCCTGAGTTTCCATTAACTGAAC | 0.972
55 | CTCCGTCGTGGCCTGGCGTGGATTCCGAGC | -1.31
56 | TTTGCCATAGATCCCACCATTCCCAGTTGT | 1.86
57 | CAGAATGACTTTCAGAAAGTCCTTGGAAAC | 0.868
58 | ATGCATTTCCCTAGATCACTGTGTATTTGT | 1.6
59 | CTTTAACAAGGTGTGTTTGAGCAGGGGTGA | 1.4
60 | GCTGTCAACGGAGGTGGGAAAGACTTAGGA | -1.37
61 | TTAGATAACATCTTTTCTCAGTTAACTGGA | 1.28
62 | GAATGCTTTGAGCCAGAATCTGTCAGCTGC | -1.36
63 | GGGGAAAGTGCAAGGGCCCAGAGGAAGGAA | -1.28
64 | GGATATTGGCAACGCCTCAGAAGCAAAGTC | -1.48
65 | TAGTTATTCAGTACAGACTTGTGTAATAAC | 0.939
66 | AGTTGAGAATTCCAGAGATGCCAGGAGAGC | -1.29
67 | AGCCTTACCAGTAGGACCACATTCAATCAT | -1.2
68 | AAAAAGCTATCATTTGTCACTTGGACTATT | 3.62
69 | TTGGTGAGTCTTAGGGAGGGGCCAGGACAA | -1.26
70 | AAAGTGACACATTCCAGGCGAGTTTGGGCT | -1.25
71 | AAATTTCAGATATCTGAATGTACCTTTGAA | 3.09
72 | TGTGCAGACCTTCTCTGGCCCTCACTTACA | -1.23

Row | Sequence | binding signal (log2 normalized intensity)
73 | GTCCTTTCAGGACACCTTCAGGGCTGAGCC | 0.705
74 | ATATCAGTGGCACTCTCTGGGTTAAACGTG | 1.34
75 | CCAGAATCCTAACTGCAAGGAAATCTGGGA | -1.48
76 | GACTTTGGCTTTTCCAAAGGATCCCAGGAA | -1.33
77 | CTGCCTATCTCCTATGAGCCAAACACCATG | -1.29
78 | TCCCCAGACAGCCACTGTTTGACGACTGTC | -1.11
79 | AACGGGTTAGACGCACGGCAGAGCACCTGG | -1.35
80 | CTCTGAATAACTGCTTTGTGGCATCAGGGT | 0.685
81 | CTTTCCTGCAGAGGGACTGACTCCCTTTTC | -0.672
82 | CCGTCAATCTGCAGCCGCCGGAGAATTAAA | -1.24
83 | TGCAGGTGGGAGAGGGGGACTGCAAGTACG | -1.47
84 | TCTGCTACTTAAGATAGAGGCTTTAGCAAT | -1.31
85 | CATATAAGGAACAAAGTCAGGTGCCAAAGG | 1.22
86 | GTCTCTCAGGCACAGCTCGACCTTTGACCT | 10
87 | GATTTGAAGGAGCAGAATAAGGCCCAGTGT | -0.567
88 | TTTGACATCCAAAGTTTCCTCTCCTGCCCT | 2.45
89 | TGACCACTCTGCCAGGTGACCACTCTGTAA | -0.56
90 | AGACAGTGTGGCAGAAAACGCAATTGCCCT | 2.13
91 | GCTTTGCGGAGAGGGTTCTCACTCCTCTAT | -1.29
92 | ATAAGAAACCCAAGATTTGGTGTTACCTTT | 1.46
93 | CTGCCCTTCCACCCACTTTATCTTCTATAG | 1.52
